Our source for the Kd values is paper PMC3114464 (Biochemistry, 2011).

In this assay the target is T1, IsdA-N1 (NEAT domain of IsdA), apo form (S. aureus, UniProt Q7A655 62-184).
T1 sequence (looked up): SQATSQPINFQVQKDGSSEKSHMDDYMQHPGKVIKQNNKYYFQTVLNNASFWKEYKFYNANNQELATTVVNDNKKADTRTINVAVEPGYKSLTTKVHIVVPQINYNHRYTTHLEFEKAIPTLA
The assay can be described thus: stopped-flow spectroscopy of heme transfer.

B1: IsdB-N2 (second, heme binding, C-terminal NEAT domain of IsdB), wild type (domain or fragment)
chain: not shown
On to B1, for which binding was characterised by a dissociation constant (Kd) of 18.6 µM.
